According to the supplement of paper PMC5499739:
The full ranking holds about 16,000 sequences; the median of “Z-score” is about -0.37, and the highest 2% start at about 3.2. The list shows a part of the results.

Each sequence was assayed on RBM10 RRM1-ZnF (GST-tagged construct) (assay: RNAcompete 7-mer binding Z-score; higher = stronger binding preference).
Protocol: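 RNAcompete: 20 pmol GST-tagged RBM10 RNA-binding constructs were incubated with a designed RNA pool of about 241,000 sequences up to 41 nt (1.5 nmol) on glutathione beads for 30 min at 4 °C and washed. Bound RNAs were identified by microarray hybridisation. Each RNA 7-mer is scored by a one-sided Z-score of its enrichment, computed over probes that contain the 7-mer within longer pool sequences.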
In the case of GCUUACA, the “RNAcompete 7-mer binding Z-score” value is reported as -0.639.
With UUAAGUU the “RNAcompete 7-mer binding Z-score” value was -0.409.
In the case of UAAACUG, the “RNAcompete 7-mer binding Z-score” value is reported as -0.285.
GACUGUC was tested, and the “RNAcompete 7-mer binding Z-score” value was -0.678.
In the case of GAACAUG, the “RNAcompete 7-mer binding Z-score” value is reported as 0.433.
With GAACAUU the “RNAcompete 7-mer binding Z-score” value was -0.373.
For AACUGGG, the “RNAcompete 7-mer binding Z-score” value was 1.96.
With AGAUACA the “RNAcompete 7-mer binding Z-score” value was -0.49.
In the case of AGGGGAG, the “RNAcompete 7-mer binding Z-score” value is reported as 2.9.
For ACGUGGA, the “RNAcompete 7-mer binding Z-score” value was 2.05.
With AAGGCCG the “RNAcompete 7-mer binding Z-score” value was 0.235.
For CAUCCGG, the “RNAcompete 7-mer binding Z-score” value was -0.269.
For GUUAUAG, the “RNAcompete 7-mer binding Z-score” value was 0.251.
For AUUGGAC, the “RNAcompete 7-mer binding Z-score” value was 0.852.
In the case of GUUCCCA, the “RNAcompete 7-mer binding Z-score” value is reported as -0.461.
CAGCGUU was tested, and the “RNAcompete 7-mer binding Z-score” value was -0.493.
GACGAUG was tested, and the “RNAcompete 7-mer binding Z-score” value was 0.641.
AGGGUUG was tested, and the “RNAcompete 7-mer binding Z-score” value was 3.8.
For GUACAAC, the “RNAcompete 7-mer binding Z-score” value was 0.0853.
With AAAAAUU the “RNAcompete 7-mer binding Z-score” value was -0.363.
In the case of GGCAGGU, the “RNAcompete 7-mer binding Z-score” value is reported as 1.71.
In the case of ACCCGGU, the “RNAcompete 7-mer binding Z-score” value is reported as -0.415.
In the case of UGACCGG, the “RNAcompete 7-mer binding Z-score” value is reported as -0.0609.
In the case of GCCUAAU, the “RNAcompete 7-mer binding Z-score” value is reported as -0.61.
For CGUGAAG, the “RNAcompete 7-mer binding Z-score” value was 0.485.
In the case of UAUGAUU, the “RNAcompete 7-mer binding Z-score” value is reported as -0.347.
In the case of AGGGGAC, the “RNAcompete 7-mer binding Z-score” value is reported as 2.18.
With UCCCUCG the “RNAcompete 7-mer binding Z-score” value was -0.493.
With AGCAUUC the “RNAcompete 7-mer binding Z-score” value was -0.694.
With CCGUUAU the “RNAcompete 7-mer binding Z-score” value was -0.746.
CAGCCCC was tested, and the “RNAcompete 7-mer binding Z-score” value was -0.0934.
GUUCACG was tested, and the “RNAcompete 7-mer binding Z-score” value was -0.285.
In the case of GGACUCC, the “RNAcompete 7-mer binding Z-score” value is reported as 0.0495.
For AGAUGGG, the “RNAcompete 7-mer binding Z-score” value was 3.01.
CUCAGUU was tested, and the “RNAcompete 7-mer binding Z-score” value was -0.688.
UGGGGUA was tested, and the “RNAcompete 7-mer binding Z-score” value was 3.56.
GUAACUA was tested, and the “RNAcompete 7-mer binding Z-score” value was -0.152.
GGCUCCU was tested, and the “RNAcompete 7-mer binding Z-score” value was -0.477.
In the case of GUUCUUG, the “RNAcompete 7-mer binding Z-score” value is reported as -0.412.
In the case of GCAUUCU, the “RNAcompete 7-mer binding Z-score” value is reported as -0.785.
With GGGCUUC the “RNAcompete 7-mer binding Z-score” value was 0.426.
AGUACCC was tested, and the “RNAcompete 7-mer binding Z-score” value was -0.694.
UUUCUGA was tested, and the “RNAcompete 7-mer binding Z-score” value was -0.672.
In the case of GCAUAUC, the “RNAcompete 7-mer binding Z-score” value is reported as -0.591.
GUCAUAA was tested, and the “RNAcompete 7-mer binding Z-score” value was -0.516.
With AAGAAUA the “RNAcompete 7-mer binding Z-score” value was -0.165.
In the case of CUAUUAC, the “RNAcompete 7-mer binding Z-score” value is reported as -0.558.
GAGUAUC was tested, and the “RNAcompete 7-mer binding Z-score” value was -0.162.
ACCCUCG was tested, and the “RNAcompete 7-mer binding Z-score” value was -0.707.
For UACGAUC, the “RNAcompete 7-mer binding Z-score” value was -0.402.
In the case of AUGAGUC, the “RNAcompete 7-mer binding Z-score” value is reported as -0.155.
For CUCCAGC, the “RNAcompete 7-mer binding Z-score” value was -0.568.
AAUGUUU was tested, and the “RNAcompete 7-mer binding Z-score” value was -0.392.
UCCCGAG was tested, and the “RNAcompete 7-mer binding Z-score” value was -0.493.
With ACAGUAA the “RNAcompete 7-mer binding Z-score” value was -0.00246.
For AGGCGCA, the “RNAcompete 7-mer binding Z-score” value was 0.0528.
With CAGGGCC the “RNAcompete 7-mer binding Z-score” value was 0.215.
For GUAUUCA, the “RNAcompete 7-mer binding Z-score” value was -0.5.
With UUGAGUU the “RNAcompete 7-mer binding Z-score” value was -0.0674.
CUAAACU was tested, and the “RNAcompete 7-mer binding Z-score” value was -0.678.
For GACGACU, the “RNAcompete 7-mer binding Z-score” value was -0.438.
For CUCUUCU, the “RNAcompete 7-mer binding Z-score” value was -0.909.
For CGGUAAU, the “RNAcompete 7-mer binding Z-score” value was 0.378.
In the case of UCUGUAA, the “RNAcompete 7-mer binding Z-score” value is reported as -0.685.
With GAGACUU the “RNAcompete 7-mer binding Z-score” value was -0.457.
For UAAUUAA, the “RNAcompete 7-mer binding Z-score” value was -0.435.
UACCCUU was tested, and the “RNAcompete 7-mer binding Z-score” value was -0.883.
In the case of AUUGGCC, the “RNAcompete 7-mer binding Z-score” value is reported as -0.233.
For CUCUAAC, the “RNAcompete 7-mer binding Z-score” value was -0.717.
CUCGGCC was tested, and the “RNAcompete 7-mer binding Z-score” value was -0.659.
For UACUGGC, the “RNAcompete 7-mer binding Z-score” value was -0.662.
With GGAACUU the “RNAcompete 7-mer binding Z-score” value was 0.0755.
In the case of AAUGCGU, the “RNAcompete 7-mer binding Z-score” value is reported as -0.366.
For GUCCGUA, the “RNAcompete 7-mer binding Z-score” value was -0.526.
For AGAACCG, the “RNAcompete 7-mer binding Z-score” value was -0.717.
UAUGAGG was tested, and the “RNAcompete 7-mer binding Z-score” value was 1.26.
In the case of GGAUGCC, the “RNAcompete 7-mer binding Z-score” value is reported as 0.677.
UAGGUUA was tested, and the “RNAcompete 7-mer binding Z-score” value was 1.11.
AAGUGCU was tested, and the “RNAcompete 7-mer binding Z-score” value was -0.272.
In the case of UGGAGUU, the “RNAcompete 7-mer binding Z-score” value is reported as 1.77.
With UACGUCA the “RNAcompete 7-mer binding Z-score” value was -0.24.
With GAAUUUA the “RNAcompete 7-mer binding Z-score” value was -0.36.
In the case of AUUACAG, the “RNAcompete 7-mer binding Z-score” value is reported as -0.178.
ACUCACA was tested, and the “RNAcompete 7-mer binding Z-score” value was -0.662.
For UGAUUGG, the “RNAcompete 7-mer binding Z-score” value was 1.44.
CGUGACC was tested, and the “RNAcompete 7-mer binding Z-score” value was -0.672.
GGGCACU was tested, and the “RNAcompete 7-mer binding Z-score” value was 0.904.
UGAAGUG was tested, and the “RNAcompete 7-mer binding Z-score” value was 1.19.
For CGGCAGU, the “RNAcompete 7-mer binding Z-score” value was -0.116.
For GUAUUCU, the “RNAcompete 7-mer binding Z-score” value was -0.6.
In the case of UUACGCC, the “RNAcompete 7-mer binding Z-score” value is reported as -0.772.
In the case of GCGCGGU, the “RNAcompete 7-mer binding Z-score” value is reported as 0.979.
GCAUCAG was tested, and the “RNAcompete 7-mer binding Z-score” value was 0.261.
In the case of GUCCCCC, the “RNAcompete 7-mer binding Z-score” value is reported as -0.0869.
For GACUAGC, the “RNAcompete 7-mer binding Z-score” value was -0.282.
With CGACCGC the “RNAcompete 7-mer binding Z-score” value was -0.779.
With GGGAAGA the “RNAcompete 7-mer binding Z-score” value was 3.86.
For CCGGUAC, the “RNAcompete 7-mer binding Z-score” value was -0.331.
With UCUUGGC the “RNAcompete 7-mer binding Z-score” value was -0.539.
In the case of GGGGGGC, the “RNAcompete 7-mer binding Z-score” value is reported as 2.37.
For CUGAAGA, the “RNAcompete 7-mer binding Z-score” value was -0.409.
For UCAUUUC, the “RNAcompete 7-mer binding Z-score” value was -0.909.
GGUAGAU was tested, and the “RNAcompete 7-mer binding Z-score” value was 1.73.
For UGUUCAC, the “RNAcompete 7-mer binding Z-score” value was -0.766.
With CUAUCUA the “RNAcompete 7-mer binding Z-score” value was -0.672.
With UAGACUA the “RNAcompete 7-mer binding Z-score” value was -0.435.
With UACUCGA the “RNAcompete 7-mer binding Z-score” value was -0.483.
In the case of UUCCAGC, the “RNAcompete 7-mer binding Z-score” value is reported as -0.727.
In the case of CUUGGCA, the “RNAcompete 7-mer binding Z-score” value is reported as -0.451.
CUCAAGU was tested, and the “RNAcompete 7-mer binding Z-score” value was -0.571.
For GAAAACG, the “RNAcompete 7-mer binding Z-score” value was 0.53.
GCCCCCG was tested, and the “RNAcompete 7-mer binding Z-score” value was 0.082.
For CGUUCAG, the “RNAcompete 7-mer binding Z-score” value was -0.373.
For AAUUCAA, the “RNAcompete 7-mer binding Z-score” value was -0.607.
With CUGGAGA the “RNAcompete 7-mer binding Z-score” value was 0.501.
ACACGGC was tested, and the “RNAcompete 7-mer binding Z-score” value was -0.191.
For CUCUCAG, the “RNAcompete 7-mer binding Z-score” value was -0.552.
